Results are given in words; binding and its absence hold for the method and conditions named. In cells and extracts the contact can be indirect. Some entries that bind do so weakly or less than the wild type.

By UniProt entry, the sequences of proteins in these tests, tags left out. Where a name states a change or a piece, a line headed by the entry shows the natural chain unless it says otherwise. Chains listed by the source or under a name are the forms on record and can include a tag or linker.
UniProt Q99816: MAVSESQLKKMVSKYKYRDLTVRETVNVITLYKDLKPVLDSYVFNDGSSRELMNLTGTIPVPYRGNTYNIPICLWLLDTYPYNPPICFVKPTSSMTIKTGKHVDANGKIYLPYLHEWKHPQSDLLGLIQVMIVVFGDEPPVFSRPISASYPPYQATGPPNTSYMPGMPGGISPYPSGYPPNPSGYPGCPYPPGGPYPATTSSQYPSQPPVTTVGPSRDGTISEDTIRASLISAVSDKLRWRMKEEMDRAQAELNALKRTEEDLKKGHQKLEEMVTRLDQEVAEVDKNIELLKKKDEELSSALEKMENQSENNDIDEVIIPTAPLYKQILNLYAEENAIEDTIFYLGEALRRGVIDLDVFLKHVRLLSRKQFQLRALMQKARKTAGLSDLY
Flag-TSG101_(VFND43AAAA) (Q99816, form named): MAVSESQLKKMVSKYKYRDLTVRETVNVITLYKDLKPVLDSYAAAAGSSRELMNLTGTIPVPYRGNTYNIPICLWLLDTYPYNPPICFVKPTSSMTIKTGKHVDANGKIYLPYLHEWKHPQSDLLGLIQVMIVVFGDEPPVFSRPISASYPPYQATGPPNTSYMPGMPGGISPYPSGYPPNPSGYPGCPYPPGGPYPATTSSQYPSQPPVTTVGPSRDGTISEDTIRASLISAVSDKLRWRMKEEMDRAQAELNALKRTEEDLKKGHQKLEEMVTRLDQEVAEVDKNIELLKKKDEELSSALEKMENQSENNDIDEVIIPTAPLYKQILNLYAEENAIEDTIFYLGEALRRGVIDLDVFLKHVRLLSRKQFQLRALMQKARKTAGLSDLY
HA-NEDD4 (P46934-4, form named): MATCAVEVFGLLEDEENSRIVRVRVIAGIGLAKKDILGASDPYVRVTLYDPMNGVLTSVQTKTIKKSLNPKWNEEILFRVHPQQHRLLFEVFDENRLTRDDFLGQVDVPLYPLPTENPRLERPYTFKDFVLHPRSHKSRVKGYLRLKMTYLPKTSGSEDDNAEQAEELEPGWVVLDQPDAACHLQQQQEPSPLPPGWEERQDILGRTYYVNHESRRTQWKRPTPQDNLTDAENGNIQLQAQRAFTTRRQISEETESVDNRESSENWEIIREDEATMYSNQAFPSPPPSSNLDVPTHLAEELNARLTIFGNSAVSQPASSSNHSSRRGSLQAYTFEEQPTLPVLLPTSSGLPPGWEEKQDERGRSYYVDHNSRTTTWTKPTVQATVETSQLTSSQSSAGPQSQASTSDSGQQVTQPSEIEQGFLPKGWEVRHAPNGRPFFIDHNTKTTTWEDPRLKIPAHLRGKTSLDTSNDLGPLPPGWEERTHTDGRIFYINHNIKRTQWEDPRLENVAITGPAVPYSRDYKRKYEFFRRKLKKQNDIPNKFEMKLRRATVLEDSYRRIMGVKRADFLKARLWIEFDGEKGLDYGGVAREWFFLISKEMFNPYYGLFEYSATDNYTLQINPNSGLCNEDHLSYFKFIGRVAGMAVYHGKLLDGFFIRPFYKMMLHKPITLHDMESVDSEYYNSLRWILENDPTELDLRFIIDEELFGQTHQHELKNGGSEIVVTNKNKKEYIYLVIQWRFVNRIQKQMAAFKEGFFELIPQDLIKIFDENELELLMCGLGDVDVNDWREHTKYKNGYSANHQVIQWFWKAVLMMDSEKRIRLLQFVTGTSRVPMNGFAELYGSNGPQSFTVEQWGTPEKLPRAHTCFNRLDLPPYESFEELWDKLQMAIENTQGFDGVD

In assay [1] the target is wild type HBc (capsid protein) expressed from HBV (Hepatitis B virus) (UniProt P03146). As to the kind of experiment: co-IP; HBc IP and TSG101 IP on lysates of HepAD38 cells and of HBV-infected HepG2-NTCP cells; untagged proteins; IgG IP as negative control.
Assay [2] addresses Myc-HBc_(PP129AA) (Hepatitis B virus) (UniProt P03146). Briefly: co-IP.
The target of assay [3] is N-terminal tagged Myc-HBc (hepatitis B virus capsid protein) (Hepatitis B virus) (UniProt P03146). As to the kind of experiment: co-IP.
Assay [4] addresses Myc-HBcK7R (Hepatitis B virus) (UniProt P03146). As to the kind of experiment: co-IP.
Assay [5] addresses Myc-HBc_(K7/96R) (Hepatitis B virus) (UniProt P03146). Briefly: co-IP.
The target of assay [6] is Myc-HBc_(K96R) (Hepatitis B virus) (UniProt P03146). As to the kind of experiment: co-IP.
Assay [7] deals with Myc-HBc_(PPAY129AAAA) (Hepatitis B virus) (UniProt P03146). As to the kind of experiment: co-IP.

“tumor susceptibility gene 101 (TSG101), endogenous (from UniProt Q99816 1-390)”: in assay [1], the binding result is “binds”.

For the substance “HA-NEDD4 (from UniProt P46934-4 1-900) (enzyme)”, the values for the binding result in assay [2] and in assay [3] were “no binding” and “binds”, respectively.

For the substance Flag-TSG101 (from UniProt Q99816 1-390), the binding entry was “binds” in assay [4]; “no binding” in assay [5]; “no binding” in assay [6]; “no binding” in assay [2]; “no binding” in assay [7]; “binds” in assay [3].

For “Flag-TSG101_(VFND43AAAA) (from UniProt Q99816 1-390)”, the binding result in assay [3] is “no binding”.

(Values after paper PMC10208485.)
